Whole data set: some 33,000 sequences, median “E-score (-0.5 to 0.5)” near -0.016, cut for the highest 2% near 0.31. The list shows a part of the results.
What follows are sequences tested against Cst6 (UniProt P40535) (assay: PBM E-score (8-mer binding enrichment) (E-score (-0.5 to 0.5)); higher = stronger / more preferred TF binding; most listed sequences are background and not binding sites). Conditions: protein concentration: 200 nM; construct: GST-DNA-binding domain.
Experimental: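 Universal 'all 10-mer' protein binding microarrays (Agilent AMADID 015681) probed with GST-tagged S. cerevisiae TFs (full-length or DBD) made by in vitro transcription/translation (PURExpress), about 100-200 nM. Bound TF was detected with fluorescent anti-GST. Each ungapped 8-mer (which stands for itself and its reverse complement) is scored by the PBM enrichment score (E-score), a modified Wilcoxon-Mann-Whitney statistic from -0.5 to +0.5, computed with the Universal PBM Analysis Suite. Scale: above 0.35 generally sequence-specific binding.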
With ACCTACTC the “PBM E-score” value was -0.00719. In the case of AGCCGGCC, the “PBM E-score” value was -0.142. With AAGTCAGA the “PBM E-score” value was -0.133. With CACGGTCA the “PBM E-score” value was 0.171. AAGCTTGA was tested, and the “PBM E-score” value was -0.0535. In the case of ATAAGCTA, the “PBM E-score” value was 0.211. For CGCCAGTC, the “PBM E-score” value was -0.14. For ACTTGCAG, the “PBM E-score” value was -0.132. With CTTAACCC the “PBM E-score” value was -0.27. With TTGAAAAA the “PBM E-score” value was 0.218. For AAAGTCTT, the “PBM E-score” value was 0.00101. With ACTCTACT the “PBM E-score” value was 0.12. In the case of ACGACGAA, the “PBM E-score” value was 0.0916. AGAGAAGA was tested, and the “PBM E-score” value was 0.0196. With CCCCCAGA the “PBM E-score” value was -0.391. For ATTGCGTC, the “PBM E-score” value was 0.34. In the case of CACCCAAC, the “PBM E-score” value was -0.135. AACTTATG was tested, and the “PBM E-score” value was 0.232. In the case of CGTAATTC, the “PBM E-score” value was 0.309. With GTATGCCA the “PBM E-score” value was -0.296. ACTTTCCC was tested, and the “PBM E-score” value was -0.132. In the case of CTTGTTTA, the “PBM E-score” value was 0.14. AACGCGGT was tested, and the “PBM E-score” value was 0.0121. CAATCTTA was tested, and the “PBM E-score” value was 0.0855. With CCGTGATC the “PBM E-score” value was -0.0186. With ACCTTGCA the “PBM E-score” value was -0.236. For ACCAGCGG, the “PBM E-score” value was -0.0683. TCAACGAA was tested, and the “PBM E-score” value was 0.114. For ATGGCCAG, the “PBM E-score” value was -0.102. For AGCGAAAA, the “PBM E-score” value was 0.0315. In the case of AGGTAACT, the “PBM E-score” value was 0.106. With CCTCAAGA the “PBM E-score” value was -0.159. In the case of AAAGAGAA, the “PBM E-score” value was 0.0831. In the case of CCCTTTCC, the “PBM E-score” value was -0.138. For ACCAACAA, the “PBM E-score” value was 0.197. ATTGCGTG was tested, and the “PBM E-score” value was 0.154. ACGATCCG was tested, and the “PBM E-score” value was -0.108. For ACCACAAG, the “PBM E-score” value was -0.233. In the case of CGGTCCGC, the “PBM E-score” value was -0.198. ATGTCGAG was tested, and the “PBM E-score” value was -0.0235. For GGTCGAGA, the “PBM E-score” value was -0.263. For TTAGCTAA, the “PBM E-score” value was 0.168. In the case of ACTACAAA, the “PBM E-score” value was 0.256. With AAGTAATA the “PBM E-score” value was 0.11. CCAAGAAC was tested, and the “PBM E-score” value was -0.157. With AGTTCAAT the “PBM E-score” value was -0.11. For ACCTAATG, the “PBM E-score” value was -0.118. In the case of CCGCCTAC, the “PBM E-score” value was -0.0654. In the case of GCACACAC, the “PBM E-score” value was 0.039. In the case of GTCCACAA, the “PBM E-score” value was 0.0357. In the case of CCCAAAAA, the “PBM E-score” value was -0.0343. TAATCGTA was tested, and the “PBM E-score” value was 0.235. With TCCTGAGA the “PBM E-score” value was 0.0111. For AGAGGATC, the “PBM E-score” value was -0.18. With GATTCTGA the “PBM E-score” value was 0.0866. With ATCTTTAC the “PBM E-score” value was 0.162. In the case of CAATACTG, the “PBM E-score” value was -0.115. CTTGCAGC was tested, and the “PBM E-score” value was -0.0494. With AACGTAAG the “PBM E-score” value was 0.306. In the case of GCGTACAC, the “PBM E-score” value was -0.178. With ATCGGATG the “PBM E-score” value was 0.0223. For ATTAGATC, the “PBM E-score” value was 0.16. For GCAAGCTA, the “PBM E-score” value was -0.115. CACCTACA was tested, and the “PBM E-score” value was -0.206. In the case of AACTGACT, the “PBM E-score” value was -0.0179. With AGACAGGA the “PBM E-score” value was 0.0765. With CCGGGGGA the “PBM E-score” value was -0.333. GAGGCATC was tested, and the “PBM E-score” value was 0.102. With ATCGCTGC the “PBM E-score” value was -0.132. In the case of ATGCAATG, the “PBM E-score” value was 0.194. GAAACGCC was tested, and the “PBM E-score” value was 0.246. In the case of AGTTTCGG, the “PBM E-score” value was 0.0436. In the case of TGCAGCAA, the “PBM E-score” value was 0.0106. In the case of GGGGTTTA, the “PBM E-score” value was -0.252. ACCCTACT was tested, and the “PBM E-score” value was -0.161. In the case of AAGGGGCA, the “PBM E-score” value was -0.178. ATTATGGA was tested, and the “PBM E-score” value was 0.0464. AAATGGGT was tested, and the “PBM E-score” value was 0.0302. In the case of CTGATCTC, the “PBM E-score” value was -0.0958. With CAAATCTC the “PBM E-score” value was -0.0483. With GCACAACC the “PBM E-score” value was -0.241. For CAGTTGCC, the “PBM E-score” value was 0.0723. CAAGCTGA was tested, and the “PBM E-score” value was 0.0826. CTTCCTTA was tested, and the “PBM E-score” value was -0.0676. For CCCTGTGC, the “PBM E-score” value was -0.144. With GATGTTGA the “PBM E-score” value was 0.225. In the case of CCAGTGAG, the “PBM E-score” value was -0.0869. For CCTGTCCA, the “PBM E-score” value was -0.305. In the case of AATCGTCC, the “PBM E-score” value was -0.00977. For CTAACATC, the “PBM E-score” value was 0.0755. For ACAAGGCT, the “PBM E-score” value was -0.0734. With CCACCGCG the “PBM E-score” value was -0.0547. In the case of TACGTCGA, the “PBM E-score” value was 0.238. In the case of TACTCCGA, the “PBM E-score” value was -0.22. With CTGGGATC the “PBM E-score” value was -0.123. GCCCGGAA was tested, and the “PBM E-score” value was -0.243. In the case of CAGAATAG, the “PBM E-score” value was 0.106. ACGTCCTG was tested, and the “PBM E-score” value was -0.115. CATTATAC was tested, and the “PBM E-score” value was 0.15. CTCATTCA was tested, and the “PBM E-score” value was 0.0767. For GCGTTGGA, the “PBM E-score” value was -0.0905. ATGAGCCC was tested, and the “PBM E-score” value was -0.283. With CCAGCCTC the “PBM E-score” value was -0.338. For CTTAAGAA, the “PBM E-score” value was 0.0736. For AAACGGAC, the “PBM E-score” value was -0.106. With GAGCCTGC the “PBM E-score” value was -0.173. In the case of TAAAGCCA, the “PBM E-score” value was 0.0736. For CCAAGTCC, the “PBM E-score” value was -0.349. With TCATGTCA the “PBM E-score” value was 0.382.
